# Measurements reported in the supplement of paper PMC4166925.
# ± gives the standard deviation of the averaged measurements. Over roughly 33,000 sequences, “E-score (dimensionless, -0.5 to 0.5)” has its median near -0.049; the highest 2% begin near 0.37. Some of the results follow.
# System: T1, PmTbr T-box DNA-binding domain (GST fusion)
# T1 sequence: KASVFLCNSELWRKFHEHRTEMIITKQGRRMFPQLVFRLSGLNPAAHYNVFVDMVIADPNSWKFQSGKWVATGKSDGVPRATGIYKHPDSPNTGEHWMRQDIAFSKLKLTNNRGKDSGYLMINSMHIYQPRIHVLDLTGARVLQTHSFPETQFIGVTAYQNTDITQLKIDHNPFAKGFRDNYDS
# Assay: PBM E-score of 8-mer (E-score (dimensionless, -0.5 to 0.5)); Tbr is Tbrain of the sea star Patiria miniata (Pm) or the sea urchin Strongylocentrotus purpuratus (Sp); higher = stronger binding preference; most listed sequences are background and not binding sites
# Details: the construct has about 5 more residues each side
# Method: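 Universal protein-binding microarray (Agilent AMADID 016060, 60-bp probes with a 35-bp variable region) incubated with 200 nM GST-fused Patiria miniata Tbr T-box DNA-binding domain (residues 272-466) in PBS pH 7.5. Scored for every ungapped 8-mer (given with its reverse complement) by the Universal PBM Analysis Suite as E-score (modified Wilcoxon-Mann-Whitney enrichment, range -0.5 to 0.5; >0.45 counts as bound) and Z-score of median probe intensity. Two replicate arrays (datasets 1 and 2).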
row,Sequence,PBM E-score of 8-mer
1,CGAACTGC,0.0894 ± 0.015
2,AGAAACTG,-0.138 ± 0.075
3,CTCCTGCC,-0.0358 ± 0.0023
4,GGCAATAA,-0.006 ± 0.01
5,AGTAAGGG,-0.082 ± 0.04
6,ATCTAGTG,-0.0333 ± 0.073
7,CAGATTGA,-0.0695 ± 0.024
8,CAATAGTG,0.127 ± 0.061
9,GGTGGAGA,0.0656 ± 0.021
10,CTGGTGAC,0.221 ± 0.045
11,GGAAAGCA,-0.00256 ± 0.025
12,GATCAAGC,-0.0603 ± 0.017
13,AGGGGTGG,0.212 ± 0.04
14,CAAGACTG,-0.152 ± 0.0087
15,CACACGTG,0.376 ± 0.019
16,GAGCACCA,-0.0664 ± 0.018
17,CCGCCAAG,0.0362 ± 0.074
18,CATCCGTA,-0.148 ± 0.018
19,CGCCTGGC,0.206 ± 0.022
20,ACAAGACG,-0.0289 ± 0.038
21,GAAGGTGA,0.406 ± 0.011
22,ACTACTGA,-0.256 ± 0.0037
23,GGGATGAA,-0.181 ± 0.045
24,AAAACTTC,0.0341 ± 0.11
25,AGTGCTTC,-0.15 ± 0.097

row,Sequence,PBM E-score of 8-mer
1,AGCATTAC,-0.216 ± 0.015
2,ACTGCCGG,0.056 ± 0.077
3,AAAGTATC,0.0285 ± 0.0035
4,ATAAACCA,-0.164 ± 0.04
5,ATCGCCTC,0.309 ± 0.025
6,AATCTCCG,-0.156 ± 0.013
7,TGCCTGAA,-0.204 ± 0.061
8,CTCGGCCC,-0.00153 ± 0.0094
9,ACTCACAG,0.314 ± 0.043
10,CTCCGATC,-0.023 ± 0.038
11,AGGAATAG,-0.254 ± 0.029
12,GAGGCATA,-0.235 ± 0.005
13,CATTTCAA,-0.0254 ± 0.069
14,GCTGGAAA,-0.0875 ± 0.022
15,AGCTGACC,-0.327 ± 0.034
16,CGCGAACG,0.375 ± 0.017
17,AAACGATC,0.138 ± 0.04
18,CGGCCTCC,-0.251 ± 0.078
19,GAATAGGC,-0.104 ± 0.12
20,AAGGCCGA,-0.191 ± 0.09
21,ACCTACGC,0.0812 ± 0.064
22,AGTAACAT,-0.247 ± 0.068
23,AGACGTAG,-0.255 ± 0.0081
24,ATGGACGC,-0.173 ± 0.026
25,AGGGCACA,-0.00764 ± 0.063

row,Sequence,PBM E-score of 8-mer
1,GATCCTCA,0.167 ± 0.0084
2,GGGATCCC,-0.239 ± 0.004
3,ATGCCAGC,-0.0462 ± 0.0027
4,CAGTCTCA,0.209 ± 0.019
5,AGCATGAT,-0.00898 ± 0.032
6,GCGACAAA,0.36 ± 0.013
7,ACACTGAA,0.069 ± 0.069
8,ATCTCAAA,-0.29 ± 0.025
9,GATATCAA,0.0228 ± 0.067
10,GAACTGCA,-0.174 ± 0.064
11,TGTGGCAA,0.252 ± 0.027
12,GACTCCAA,-0.118 ± 0.0065
13,CAAGACTA,-0.173 ± 0.059
14,CATGGGAG,-0.131 ± 0.057
15,GCTACAGA,0.105 ± 0.004
16,CCTGACCA,0.0195 ± 0.044
17,CGCGGTAG,0.0761 ± 0.015
18,CAGACTTA,-0.148 ± 0.0086
19,AGATTGAA,-0.235 ± 0.04
20,TCTCCGAA,-0.176 ± 0.0043
21,AACATACC,0.0158 ± 0.017
22,TCATACCA,-0.0579 ± 0.029
23,ACAGGATA,-0.138 ± 0.028
24,GCGGTAAA,-0.0591 ± 0.00065
25,ATACCTCC,-0.0427 ± 0.026

row,Sequence,PBM E-score of 8-mer
1,ACGCTCCA,-0.119 ± 0.0053
2,CCCGCCCG,-0.222 ± 0.022
3,ACCTCCCC,0.00887 ± 0.0031
4,ATTGTCTA,-0.152 ± 0.0039
5,ATCTGATA,-0.0818 ± 0.094
6,GCAATCGC,0.0879 ± 0.015
7,AATGGCTC,-0.104 ± 0.041
8,CGTAGGCA,-0.194 ± 0.035
9,CTAATTGA,0.0172 ± 0.067
10,CCACAATA,-0.124 ± 0.072
11,ATAACAAC,0.141 ± 0.035
12,ATATTAAC,-0.0921 ± 0.14
13,GCTCGTTA,-0.0211 ± 0.018
14,CCTAACTC,0.0221 ± 0.055
15,CAAACGTC,-0.233 ± 0.045
16,GCATACCC,-0.23 ± 0.056
17,CTCTGCCA,0.0266 ± 0.038
18,CTCGGACA,0.0381 ± 0.03
19,GAACCCGA,-0.00182 ± 0.038
20,CAGAACGC,-0.147 ± 0.082
21,GCACTACC,0.034 ± 0.025
22,AAAAGAAA,-0.0381 ± 0.04
23,AGGTAACA,0.289 ± 0.02
24,GAATGAAC,-0.195 ± 0.049
25,GCAATCCC,-0.173 ± 0.014

row,Sequence,PBM E-score of 8-mer
1,AAGCAGCG,0.0789 ± 0.062
2,ACAGTCGA,-0.146 ± 0.09
3,CTGTTCTC,0.0542 ± 0.017
4,CGCGAACC,0.328 ± 0.0044
5,AAGTTTTC,-0.0473 ± 0.066
6,CGACAAAG,0.199 ± 0.0092
7,ATTCCTGC,-0.0932 ± 0.013
8,CAAATCTA,-0.0568 ± 0.0021
9,CCCTCGGC,-0.103 ± 0.022
10,GAGTCTCC,-0.291 ± 0.022
11,GCAAACAC,0.294 ± 0.023
12,AAAGTCCT,-0.232 ± 0.0056
13,ACGCAAAG,-0.0407 ± 0.019
14,GTGTCTAA,0.247 ± 0.00057
15,ACGACTTG,0.196 ± 0.013
16,GTCCTATA,-0.406 ± 0.045
17,CATGAAGA,-0.0102 ± 0.0076
18,AAGGGAGT,0.0112 ± 0.036
19,CGACGATA,-0.00792 ± 0.073
20,AAATGCAA,-0.138 ± 0.059
21,AACGTGGA,-0.224 ± 0.04
22,AGACGAAG,-0.189 ± 0.065
23,AGTTCTGA,-0.113 ± 0.0066
24,CGCGTATC,0.192 ± 0.019
25,ATTCCGGG,-0.138 ± 0.033

row,Sequence,PBM E-score of 8-mer
1,AGGTAATC,0.0129 ± 0.036
2,ATAAGACA,-0.234 ± 0.01
3,CAACTTCA,-0.0479 ± 0.0083
4,TGGGAACA,0.109 ± 0.054
5,AAAGGGCA,-0.0167 ± 0.042
6,CTGCTTAC,-0.068 ± 0.033
7,AGCCCACG,-0.25 ± 0.017
8,ACAACAGC,0.193 ± 0.01
9,ATCAATCC,-0.266 ± 0.019
10,CCGTCGAA,-0.136 ± 0.0057
11,AAATATTA,0.0227 ± 0.073
12,ACGAGGTA,-0.046 ± 0.031
13,CCCCATAG,-0.0909 ± 0.046
14,GTGGACAC,0.188 ± 0.022
15,CATATTTC,0.004 ± 0.022
16,CCGATTGC,-0.0854 ± 0.016
17,CGTTCCCA,0.00839 ± 0.055
18,CAACAATG,-0.00548 ± 0.031
19,ATAGTCCA,-0.172 ± 0.023
20,AGCATCAG,-0.172 ± 0.002
21,CTTGAAAG,-0.174 ± 0.1
22,CTATAGGC,-0.0995 ± 0.037
23,GCGCGAGC,0.235 ± 0.055
24,CCACCGAG,-0.107 ± 0.017
25,ACTTGTAT,-0.126 ± 0.018

row,Sequence,PBM E-score of 8-mer
1,GGGCAACC,-0.247 ± 0.019
2,ACACTATG,0.349 ± 0.028
3,AGCTCAAG,-0.169 ± 0.058
4,CCGCAAAC,-0.0182 ± 0.0088
5,TACCCAAA,-0.164 ± 0.0061
6,GGGGTGAC,0.3431 ± 0.0017
7,CTGAGTTC,-0.0631 ± 0.02
8,CTCACTCC,0.174 ± 0.071
9,GCACGCGA,0.143 ± 0.018
10,CTAAGTCC,-0.257 ± 0.091
11,CCCTGGAA,-0.221 ± 0.0054
12,AGCACGGA,-0.134 ± 0.039
13,CGTTGTCC,-0.0685 ± 0.018
14,ACACACCC,0.327 ± 0.015
15,TGGATAAA,-0.199 ± 0.014
16,ACGTATCC,-0.307 ± 0.029
17,CCCGGGAC,-0.164 ± 0.0078
18,TCACAAAA,0.132 ± 0.083
19,CTTGTGTC,0.122 ± 0.039
20,TCCATAGA,-0.0836 ± 0.042
21,GTACACTA,-0.147 ± 0.044
22,CCTGCCGA,-0.0434 ± 0.037
23,CTATGGCC,-0.148 ± 0.049
24,CCCGAGGC,0.173 ± 0.016
25,ATGCCAAG,-0.216 ± 0.012

row,Sequence,PBM E-score of 8-mer
1,CCAACTCG,0.083 ± 0.024
2,ACGGGTTA,-0.199 ± 0.043
3,TAGTGTGA,0.446 ± 0.0044
4,AGTCGCGA,0.357 ± 0.012
5,AGCTATCC,-0.334 ± 0.059
6,CTACACGC,0.0918 ± 0.046
7,ACAAATGG,-0.0508 ± 0.12
8,CTGTACTA,-0.0788 ± 0.016
9,AAGTTACA,0.0427 ± 0.067
10,CACATGGC,0.213 ± 0.011
11,GATTAAAA,-0.0667 ± 0.028
12,AGAAGACC,-0.173 ± 0.008
13,AGGTTCAT,-0.07428 ± 0.00047
14,CGTAACTC,-0.28 ± 0.098
15,CCGCGTGC,0.0114 ± 0.058
16,CATACCAC,0.055 ± 0.054
17,GGCGGCCC,-0.171 ± 0.016
18,AACATTCA,-0.0317 ± 0.013
19,GTCGTTGA,0.113 ± 0.0055
20,CCATTAGG,-0.2221 ± 0.0014
21,CGAACGAG,-0.103 ± 0.0025
22,CGAGAGAG,0.0817 ± 0.016
23,AATACGAC,-0.00574 ± 0.041
24,AGCGGCTC,0.0646 ± 0.0087
25,AATCTGGA,-0.213 ± 0.026

row,Sequence,PBM E-score of 8-mer
1,CCGGATAC,-0.261 ± 0.042
2,AATACATC,-0.109 ± 0.044
3,GGCCATAA,-0.0657 ± 0.044
4,ACTTACTA,-0.139 ± 0.014
5,ATACCCCA,-0.209 ± 0.058
6,CTTTCTAA,-0.264 ± 0.043
7,AAATCCCT,-0.112 ± 0.029
8,ACCCCACC,-0.00897 ± 0.0085
9,CAAGATCA,0.055 ± 0.032
10,AGGATCAA,-0.16 ± 0.017
11,ATAATCTG,-0.149 ± 0.026
12,CGACTCAG,-0.0525 ± 0.0052
13,GCAAGGTA,0.0665 ± 0.087
14,CCTATGAA,-0.158 ± 0.039
15,GGATACAA,-0.0441 ± 0.036
16,CAGCCCCA,-0.069 ± 0.039
17,GAGTCTCA,0.1181 ± 0.00078
18,AGACATTA,-0.0752 ± 0.0077
19,TGGGGACA,-0.0424 ± 0.075
